Measurements: PubChem BioAssay AID1645882 (National Center for Advancing Translational Sciences (NCATS), 2021)
The campaign covered roughly 16,000 compounds. About 120 (0.75%) were called active. Not shown: some 4% with an inconclusive outcome. The call rests on the fitted dose curve; in most records, active means well fitted inhibition curve with a large enough effect; inconclusive means small, poorly fitted or top-dose-only effect; inactive means no such curve, though single readings can be large or run the other way. Some of the results follow.

What follows are compounds tested against Rap guanine nucleotide exchange factor 3 (Homo sapiens) (UniProt O95398) (assay: Validation qHTS for antagonist of cAMP-regulated guanine nucleotide exchange factor 3 (EPAC1)). Conditions: EPAC1 Rap1B-BODIPY-GDP exchange, fluorescence; series mostly up to 150 µM; activity change, negative = inhibition: at the top concentration.
Chain of UniProt O95398 (O95398 whole entry, looked up): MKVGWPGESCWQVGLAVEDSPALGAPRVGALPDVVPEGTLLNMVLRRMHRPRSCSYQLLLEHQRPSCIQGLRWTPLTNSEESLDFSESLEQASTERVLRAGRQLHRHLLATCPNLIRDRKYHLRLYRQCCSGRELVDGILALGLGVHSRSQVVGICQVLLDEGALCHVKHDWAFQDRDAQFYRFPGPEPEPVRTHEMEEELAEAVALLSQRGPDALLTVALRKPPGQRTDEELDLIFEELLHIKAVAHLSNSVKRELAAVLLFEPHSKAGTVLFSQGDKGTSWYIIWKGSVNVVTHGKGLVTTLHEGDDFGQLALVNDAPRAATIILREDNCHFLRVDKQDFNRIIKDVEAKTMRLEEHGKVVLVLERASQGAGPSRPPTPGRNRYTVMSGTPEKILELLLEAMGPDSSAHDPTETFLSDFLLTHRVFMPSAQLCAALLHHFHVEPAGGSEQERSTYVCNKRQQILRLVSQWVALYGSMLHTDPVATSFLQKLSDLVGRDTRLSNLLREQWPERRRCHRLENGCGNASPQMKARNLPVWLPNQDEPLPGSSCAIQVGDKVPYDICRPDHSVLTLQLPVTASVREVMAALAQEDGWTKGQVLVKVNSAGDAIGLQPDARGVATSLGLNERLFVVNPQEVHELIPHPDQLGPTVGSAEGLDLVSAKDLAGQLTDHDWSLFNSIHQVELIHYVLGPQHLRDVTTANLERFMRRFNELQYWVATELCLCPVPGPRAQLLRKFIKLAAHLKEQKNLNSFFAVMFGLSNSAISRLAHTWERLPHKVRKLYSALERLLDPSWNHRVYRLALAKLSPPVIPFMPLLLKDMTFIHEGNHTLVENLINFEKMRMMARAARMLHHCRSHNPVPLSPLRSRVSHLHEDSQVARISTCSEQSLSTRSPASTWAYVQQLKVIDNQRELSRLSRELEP
Method in brief: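 Nucleotide exchange followed as fluorescence loss when BODIPY-GDP leaves Rap1B (480 nm excitation, 540 nm emission), read at 5 min intervals over 30 min. Reaction: 100 nM EPAC1, 250 nM RAP1B-BODIPY-GDP, 50 uM GDP; ATA and DMSO define normalization.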
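Further: plate controls were DMSO for no effect and ATA control for full effect; nearly all actives have a fitted effect of over 75% in size.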

Activity change, negative = inhibition, inactive:
COc1cc(=O)n(C)c2c(OCC3OC(C)(C)OC3(C)C)cccc12 (stereo not given) 0.989%
C[N+](C)(C)CC=O 2.53% [at 75.8 µM]
N#Cc1ccc(CN2CC3(CCN(C(=O)c4cccc(F)c4)CC3)C2)cc1 -6.56%
C/C=C(\C)C(=O)NCCN1Cc2ccccc2OC(c2ccccc2OC)C1 (stereo not given) 0.312%
COc1ccc(NC(=O)N2CCC3(CC2)CCN(S(C)(=O)=O)CC3)cc1 17.4%
CC(=O)c1ccc(F)c(-c2cc(C)cc3c2OC(CNC(=O)C[C@@H]2C[C@@H](C)NC(=S)N2)C3)c1 (stereo not given in full) 14.4%
CCC1(C2CCN(C(=O)c3ccc4ccccc4c3)CC2)NC(=O)N(CCc2scnc2C)C1=O (stereo not given) 11.6%
CC(C)=CCC1=C(O)[C@](O)(CC=C(C)C)C(=O)C(C(=O)CC(C)C)=C1O -3.17%
CC(C)O 0.667%
CCCS(=O)(=O)NCc1c(C)ncc2c1CCN(C(=O)/C=C/c1ccc(F)cc1F)C2 5.61%
O=S(=O)(c1ccccc1)N1CCC2(CCCN(Cc3nccs3)C2)CC1 1.2%
COC(=O)[C@@H]1CCCN1Cc1ccc2c(c1)CN(Cc1coc3ccc(C)cc3c1=O)CCO2 3.2%
O=C1CS(=O)(=O)N(Cc2cccc(F)c2)c2ccc(Br)cc21 -18.5%
COC(=O)Nc1nc2ccc(Sc3ccccc3)cc2[nH]1
CCCn1c(=O)[nH]c(=O)c2[nH]cnc21
COc1ccc(-c2nc3cnc(OC)nc3n(Cc3ccc(F)cc3)c2=O)cc1 22.3%
Oc1c(I)cc(Cl)c2cccnc12
O=C(Oc1ccccc1)N1CCC2(CC1)CN(c1ncccn1)C2 8.09%
C[C@@H](O)[C@H]1C(=O)N2C(C(=O)O)=C(S[C@@H]3CN[C@H](CNS(N)(=O)=O)C3)[C@H](C)[C@H]12 10.9%
COc1ncc2nc(-c3cc(F)cc(F)c3)c(=O)n(CCc3ccccc3)c2n1 0.491%
N[C@@](C(=O)O)(c1ccc(P(=O)(O)O)cc1)C1CC1 -4.62%
C=CC(C1=CC(=O)C(OC)=CC1=O)c1ccc(OC)cc1 (stereo not given) -2.47%
O=C(c1c(O)c2ccc(Cl)cc2[nH]c1=O)C1CC1
CC(C)(C#N)c1cc(Cn2cncn2)cc(C(C)(C)C#N)c1 10.2%
CC(C)Cn1cnc2c1c(=O)n(C)c(=O)n2C -10.4%
COc1ccc(-c2nc3cnc(Oc4cccc(Cl)c4)nc3n(C[C@H]3CCCO3)c2=O)cc1 3.69%
CO[C@H]1C[C@H](O[C@H]2[C@H](C)[C@@H](O[C@@H]3O[C@H](C)C[C@H](N(C)C)[C@H]3O)[C@@H](C)C[C@]3(CO3)C(=O)[C@H](C)[C@@H](O)[C@@H](C)[C@@H](C)OC(=O)[C@@H]2C)O[C@@H](C)[C@@H]1O -0.561% [at 75.8 µM]
CCCCCCCCCCCCCCC[C@H](O)[C@H](N)CO -1.07% [at 75.8 µM]
C[N+](C)(C)CCO
COC(=O)/C=C/c1cc(O)ccc1O 9.46%
COc1ccc(-c2cc(=O)c3cc(OC)ccc3o2)cc1 -8.01%
COc1ccc(-c2oc3c(CC=C(C)C)c(O[C@H]4OC(CO)C(O)C(O)C4O)cc(O)c3c(=O)c2O[C@@H]2OC(C)C(O)C(O)C2O)cc1 (stereo not given in full) -6.44%
CC(=O)c1ccc2c(c1)N(CCCN(C)C)c1ccccc1S2 14.2% [at 75.8 µM]
COc1cccc(-c2cc(=O)c3ccccc3o2)c1N
C=CCNC(N)=S 7.12%
CN(C)CCOC(C)(c1ccccc1)c1ccccn1 (stereo not given)
COC(=O)[C@@H]1CCCN1Cc1ccc2c(c1)CN(Cc1ccccc1F)CCO2 22.4%
CC(=O)OC1CC2C(C)(C)C(O)CC(O)[C@@]2(C)C2CC[C@@]3(C)C(=CC(=O)OC3c3ccoc3)[C@]12C (stereo not given in full) -4.66%
COc1cccc(-c2nc3cc4c(cc3cc2CN(C(=O)c2csc(C)n2)C2CC2)CCC4)c1OC 5.84%
Cn1c(=O)c(CCc2ccccc2)nc2cncnc21 -1.85%
Cn1ccc(O)c(C#N)c1=O -16%
COC(=O)c1c(OCc2cccnc2)cc(=O)n2c1CCN(Cc1cc3c(cc1Cl)OCO3)CC2 -7.61%
N#Cc1ccc(CN2CCCC3(CCN(C(=O)c4ccncc4)CC3)C2)cc1 14.9%
NC(=S)NS(=O)(=O)c1ccc(N)cc1 13.9%
CN(C(=O)C(Cl)Cl)c1ccc(OC(=O)c2ccco2)cc1 -11.5%
NC[C@](O)(CS(=O)(=O)O)c1ccc(Cl)cc1 2.81%
C[Si](C)(C)O[Si](C)(C)C 3.74%
COc1cc(-c2noc(C)c2C#Cc2ccccn2)cc(OC)c1OC -0.0485%
O=C(C[N+]12CCCc3cccc(c31)CCC2)c1ccc2ccc3cccc4ccc1c2c34 4.76%
Cc1nc2cnc(OCc3ccccc3)nc2n(Cc2ccc(F)cc2)c1=O -26.2%
N#Cc1cccc(-c2nc3cnc(N4CCOCC4)nc3n(Cc3ccc(F)cc3)c2=O)c1 7.94%
COc1ccc(CNc2nc(-c3ccc(C(=O)N(C)C)cc3)nc3ccccc23)c(OC)c1 -17.5%
Cc1oc(-c2ccccc2NC(=O)C2CCCO2)nc1CNC(=O)c1cc(Cl)ccc1F (stereo not given) 5.05%
Cc1cc(=O)c(C(=O)N(C)CCc2ccccn2)c2n1-c1ccccc1SC(c1ccsc1)C2 (stereo not given) 5.21%
Nc1ccn([C@H]2CC[C@@H](CO)O2)c(=O)n1
COc1cc(=O)n2c(c1C(=O)NC(C)c1ccco1)CCN(C(=O)c1cccc(C)c1)CC2 (stereo not given) 12.1%
CC(C)(CNC(=O)c1cnn(-c2nccc(-c3cccs3)n2)c1C1CC1)N1CCOCC1 14.5%
C[C@@H]1CCN(C(=O)[C@H](CCCN=C(N)N)NS(=O)(=O)c2cccc3c2NC[C@H](C)C3)[C@@H](C(=O)O)C1 6.64%
O=C(c1cccc(F)c1)N1CCC2(CC1)CCN(C(c1ccccc1)c1ccccc1)CC2 -5.92%
COC(=O)CC[C@H](N)C(=O)O 15.8%
CCCC(=O)Nc1c(I)cc(I)c(CC(CC)C(=O)O)c1I (stereo not given) 13.3%
CN(C)C(=O)c1ccc(-c2cc(NCc3cccnc3)ncn2)cc1 0.223%
COc1ccc(NC(=O)N2CC3(CCN(C(=O)c4ccncc4)CC3)C2)cc1 -0.911%
CC(C)[N+]1(C)[C@@H]2CC[C@H]1CC(OC(=O)C(CO)c1ccccc1)C2 (stereo not given in full)
C[C@](O)(C(=O)Nc1ccc(S(=O)(=O)c2ccccc2)cc1)C(F)(F)F -9.04%
COC(=O)C1CCN(Cc2ccc3c(c2)CN(C(=O)c2cc(-c4ccc(C)o4)[nH]n2)CCO3)CC1 15.9%
CNC[C@H](O)c1ccc(O)c(O)c1
CC(C)NCC(O)COc1ccccc1-n1cccc1 (stereo not given) 11.4%
Cn1c(=O)c(-c2cc(F)cc(F)c2)nc2cnc(Oc3ccccc3)nc21 9.07%
C=CC(=O)Nc1cc2c(Nc3ccc(F)c(Cl)c3)ncnc2cc1OCCCN1CCOCC1 11.5%
CN(C)c1ncc2nc(-c3ccc(F)cc3)c(=O)n(CCc3ccccc3)c2n1 6.02%
Cc1cccc(N(C)C(=S)Oc2ccc3c(c2)CCC3)c1 16.8%
COc1cccc(-c2nc3cc(SC)ccc3cc2CN(C(=O)c2csc(C)n2)C2CC2)c1 2.09%
COC(=O)Nc1nc2ccc(C(=O)c3cccs3)cc2[nH]1
CN1CCN(CCCN2c3ccccc3Sc3ccc(C(F)(F)F)cc32)CC1
CC(S)C(=O)NCC(=O)O (stereo not given) 18.2%
COc1ccc(OC)c(C(O)CNC(=O)CN)c1 (stereo not given)
CCCC(=O)O[C@]1(C(=O)COC(=O)CC)CC[C@H]2[C@@H]3CCC4=CC(=O)CC[C@]4(C)[C@H]3[C@@H](O)C[C@@]21C 27.5%
CN(C)CCN1C(=O)c2ccccc2N(C)c2ccccc21 18.8%
CCCC(=O)OC[C@@H](OC(=O)CCC)[C@@H](OC(=O)CCC)[C@H](Cn1c2nc(=O)[nH]c(=O)c-2nc2cc(C)c(C)cc21)OC(=O)CCC 123%
CC(=O)N1CCC2(CC1)CN(Cc1ccc(C#N)cc1)C2 -12.1%
CN=C(NC#N)NCCSCc1csc(N=C(N)N)n1
Nc1ncc2[nH]cnc2n1 25%
CN1C(=O)C[C@@H](C(=O)N[C@@H](Cc2cnc[nH]2)C(=O)N2CCC[C@H]2C(N)=O)NC1=O 13.1%
COC(=O)[C@]12CCC(C)(C)C[C@@H]1[C@@H]1C(=O)C=C3[C@@]4(C)C=C(C#N)C(=O)C(C)(C)[C@@H]4CC[C@@]3(C)[C@]1(C)CC2 12.4%
Cc1cnc(CNc2ncnc3ccc(-c4ccoc4)cc23)cn1 2.06%
O=c1[nH]c2cc([N+](=O)[O-])c([N+](=O)[O-])cc2[nH]c1=O
Cc1c[nH]c2ccccc12 3.42%
N#CCCn1c(=O)c(-c2ccc(Cl)cc2)nc2cnc(N3CCNCC3)nc21 1.67%
CCCOC(=O)C1NC(=O)N2C(C(=O)OCCC)C(C)(C)S[C@H]12 (stereo not given in full) -1.29%
CC(=O)/C(C)=N\O -10.9%
O=c1cc(-c2ccc(O)cc2)oc2ccc(O)cc12 10.4%
O=C(c1ccccc1)C(O)c1ccccc1 (stereo not given) 2.54%
OCC[N+]1(CCc2ccccc2)CCOCC1 21.5%
Cc1cccc(CNc2cc(-c3ccc(N(C)C)cc3)ncn2)c1 7.49%
C[C@H]1O[C@@H](n2cc(F)c(=O)[nH]c2=O)[C@H](O)[C@H]1O -1.63% [at 75.8 µM]
CC(=O)C1=C(O)C=C2Oc3c(C(C)=O)c(O)c(C)c(O)c3[C@]2(C)C1=O 21.7%
COc1ccccc1-c1cncnc1NCc1cnc(C)cn1 -7.99%
Cc1ccc(CN2CCc3nnc(C(NS(C)(=O)=O)C(C)C)n3CC2)cc1C (stereo not given) 10.6%
CCCCCCCCCCCCCCCCOCC(CO)OC (stereo not given) 8.2% [at 15.3 µM]
COc1cccc(-c2nc(NCc3ccc(OC)cc3OC)c3ccccc3n2)c1 -8.41%
CCOC(C)=O 3.43%
O=C(CCc1ccc(O)cc1)c1c(O)cc(O)cc1O
O=C(NCC1CCC2(CCN(Cc3cccc4ncccc34)CC2)O1)c1ccccc1 (stereo not given) -13.6%
CN(C)C(=O)c1ccc(-c2cc(Nc3ccccc3)ncn2)cc1 2.57%
